From a compilation of properties of binary mixtures (doi:10.1021/acs.jced.9b00648)
Some of these densities may be calculated back from excess volumes.

Assay: xn = mol fraction of the nth substance listed
Settings: 100 kPa

C=C[n+]1ccn(CC(N)=O)c1.O=S(=O)([N-]S(=O)(=O)C(F)(F)F)C(F)(F)F + CC#N
mass density [kg/m3]
Settings | 298.15 K | 303.15 K | 308.15 K | 313.15 K | 318.15 K | 323.15 K | 328.15 K | 333.15 K
x1 = 0.01 | – | 820.1 | – | 809.1 | – | 798 | 792.4 | 786.7
x1 = 0.1 | 1090.5 | – | 1079.6 | – | 1068.6 | 1063 | – | 1052
x1 = 0.201 | 1258.4 | – | – | 1242.3 | 1237 | 1231.6 | 1226.3 | –
x1 = 0.3026 | 1361.3 | 1356 | 1350.8 | 1345.5 | 1340.3 | – | 1329 | 1323.2
x1 = 0.4011 | 1426.7 | – | 1416.4 | – | 1406.1 | 1400.9 | – | 1389.8
x1 = 1 | 1607.1 | 1601.2 | – | 1588.1 | 1580.8 | – | – | 1561.1

CC#N + C=C[n+]1ccn(CC(N)=O)c1.O=S(=O)([N-]S(=O)(=O)C(F)(F)F)C(F)(F)F
x2 = 0
Settings | mass density [kg/m3]
298.15 K | 777.7
303.15 K | 772.3
308.15 K | 766.8
313.15 K | 761.3
318.15 K | 755.7
328.15 K | 744.5
333.15 K | 738.9
